The supplement of paper PMC10126150
Values marked as one replicate rest on one cluster of the flow cell; about a third of the high ones do not repeat.

Test system: ATP
Test: switch fluorescence ratio, 500 uM ATP over buffer (Cy3 cluster intensity, sum of 5 cycles each) (fold (ratio)); higher = stronger signal-on switching upon ATP binding; sequences stand for … in TCGTCGGCAGCGTCAGATGTGTATAAGAGACAGTTTTTTTTTTTTTTTTTTTTTTTTT…TC
Details: aptamer strand: ATP DNA aptamer (quencher-CACCTGGGGGAGTATTGCGGAGGAAGG + anchor), 100 nM annealed; ATP concentration: 500 uM; one replicate
Summary of the method: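 Clusters with intensities outside 100-1000 RFU were excluded. The remaining Cy3-labelled switching-strand clusters on a modified Illumina MiSeq flow-cell had been annealed to 100 nM quencher-labelled ATP aptamer and imaged in selection buffer, then after 15 min with 500 uM ATP at 22 °C, for five cycles separated by NaOH stripping and re-annealing. The fluorescence ratio, averaged per switch-domain sequence, is each cluster's summed target-cycle Cy3 intensity over its summed buffer-cycle Cy3 intensity.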
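Further: ATP exposure 15 min at 22 °C before imaging.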

Sequence: ACTGCGTATA
- switch fluorescence ratio: 1.06

Sequence: CGTGTGGGAG
- switch fluorescence ratio: 1.02

Sequence: TCTGGGGGAT
- switch fluorescence ratio: 1.08

Sequence: GCGCCGCGGG
- switch fluorescence ratio: 0.99

Sequence: AAAGTTGTAT
- switch fluorescence ratio: 1.01

Sequence: TATGTTCTTT
- switch fluorescence ratio: 0.992

Sequence: ATGGTAACTT
- switch fluorescence ratio: 1.02

Sequence: GGGGCTCTTC
- switch fluorescence ratio: 0.958

Sequence: AGGGATGCAA
- switch fluorescence ratio: 0.999

Sequence: GCCCCCGGGT
- switch fluorescence ratio: 0.998

Sequence: ATTAAGGTGG
- switch fluorescence ratio: 1.01

Sequence: GTCGGGAGAT
- switch fluorescence ratio: 0.945

Sequence: GACTTGGAAG
- switch fluorescence ratio: 0.994

Sequence: ATTTTTTATA
- switch fluorescence ratio: 0.964

Sequence: TAAAGCGTT
- switch fluorescence ratio: 0.963

Sequence: GTATCGTCGG
- switch fluorescence ratio: 1.01

Sequence: AGTTGTAGCT
- switch fluorescence ratio: 1.03

Sequence: AGTCTGCTAA
- switch fluorescence ratio: 0.974

Sequence: TCTCGTGTTA
- switch fluorescence ratio: 1.04

Sequence: GGAGGGGG
- switch fluorescence ratio: 1.07

Sequence: TCAGTTATGA
- switch fluorescence ratio: 0.981

Sequence: GGAAACATCT
- switch fluorescence ratio: 0.984

Sequence: TTTCTCGGGT
- switch fluorescence ratio: 1.01

Sequence: TCAGGCCCGA
- switch fluorescence ratio: 1.02

Sequence: GATGGCGCTA
- switch fluorescence ratio: 0.933

Sequence: CTGAAGCCGA
- switch fluorescence ratio: 1.21

Sequence: TGTGAGTGTT
- switch fluorescence ratio: 0.986

Sequence: CGGACCTTTT
- switch fluorescence ratio: 0.979

Sequence: GCATTTACTC
- switch fluorescence ratio: 2.43

Sequence: GCCACGTACA
- switch fluorescence ratio: 1.63

Sequence: TATGCCCTCC
- switch fluorescence ratio: 1.05

Sequence: CATCTTAGCG
- switch fluorescence ratio: 1

Sequence: GCACCCCATT
- switch fluorescence ratio: 0.966

Sequence: TTTATAAG
- switch fluorescence ratio: 0.957

Sequence: TAGTGCGCT
- switch fluorescence ratio: 1.02

Sequence: AAGAGGACTT
- switch fluorescence ratio: 0.985

Sequence: GTTCTGATCG
- switch fluorescence ratio: 1.02

Sequence: AGTTCTATTC
- switch fluorescence ratio: 0.972

Sequence: TCGTGTAAAA
- switch fluorescence ratio: 0.954

Sequence: CACTCCAT
- switch fluorescence ratio: 0.984

Sequence: GGGAAACGAT
- switch fluorescence ratio: 1.05

Sequence: CTTCAACCGC
- switch fluorescence ratio: 1.2

Sequence: GGTCAAACT
- switch fluorescence ratio: 0.998

Sequence: CCAGTGCTGA
- switch fluorescence ratio: 1.03

Sequence: ATGTAGTTGA
- switch fluorescence ratio: 1.03

Sequence: TTCTAACGAC
- switch fluorescence ratio: 0.963

Sequence: AGCATGGTTA
- switch fluorescence ratio: 0.988

Sequence: TCTATTAGGT
- switch fluorescence ratio: 1.01

Sequence: GTTATGGGTT
- switch fluorescence ratio: 0.963

Sequence: TATGGGCGGG
- switch fluorescence ratio: 0.962

Sequence: GCTTAGGAAC
- switch fluorescence ratio: 1.01

Sequence: AGGCGATGTG
- switch fluorescence ratio: 1.01

Sequence: GCAAATTTAA
- switch fluorescence ratio: 1.01

Sequence: AAGTTATTCC
- switch fluorescence ratio: 1.11

Sequence: CAACAATGGG
- switch fluorescence ratio: 0.976

Sequence: CGGTTACGCC
- switch fluorescence ratio: 0.962

Sequence: TACCCTACTT
- switch fluorescence ratio: 1.27

Sequence: CGCCCGGTGG
- switch fluorescence ratio: 0.987

Sequence: CGCCGTTAAA
- switch fluorescence ratio: 1.04

Sequence: ACTGACATTT
- switch fluorescence ratio: 1.07

Sequence: AGGGTTTATA
- switch fluorescence ratio: 1.02

Sequence: TATATTTGAC
- switch fluorescence ratio: 0.972

Sequence: GATTTCCCTA
- switch fluorescence ratio: 0.983

Sequence: GGTTGCACCC
- switch fluorescence ratio: 1.02

Sequence: GGATAAGAAA
- switch fluorescence ratio: 0.964

Sequence: CTCATCGTAT
- switch fluorescence ratio: 0.965

Sequence: AAATATGATA
- switch fluorescence ratio: 0.977

Sequence: CTTTGCGTGG
- switch fluorescence ratio: 1.05

Sequence: TTAGATCCGG
- switch fluorescence ratio: 1.03

Sequence: GCTCGCGTTA
- switch fluorescence ratio: 1.09

Sequence: ACAGGTAATG
- switch fluorescence ratio: 0.999

Sequence: GATAGTCGTT
- switch fluorescence ratio: 0.998

Sequence: GATGGGATTT
- switch fluorescence ratio: 1.02

Sequence: TGCAACACGG
- switch fluorescence ratio: 1.18

Sequence: CGATGCCGGT
- switch fluorescence ratio: 0.982

Sequence: CCTAGTCCTC
- switch fluorescence ratio: 1.01

Sequence: CGCATAGGAG
- switch fluorescence ratio: 1.35

Sequence: CGGATACTCG
- switch fluorescence ratio: 1.15

Sequence: AGTCTATACT
- switch fluorescence ratio: 1.09

Sequence: CTAGTGACAG
- switch fluorescence ratio: 0.986

Sequence: CGTTCTAAGA
- switch fluorescence ratio: 1.04

Sequence: GTCTATGCTC
- switch fluorescence ratio: 1.14

Sequence: AACTGTAGAG
- switch fluorescence ratio: 1.04

Sequence: TGAACTTCGG
- switch fluorescence ratio: 0.956

Sequence: CCAAGGCCTG
- switch fluorescence ratio: 1.02

Sequence: GATTAGTAGA
- switch fluorescence ratio: 1.02

Sequence: GTGTTTACCC
- switch fluorescence ratio: 1.02

Sequence: ATACTTT
- switch fluorescence ratio: 1.01

Sequence: GTGCTAACTT
- switch fluorescence ratio: 0.965

Sequence: ACCGTGTTGA
- switch fluorescence ratio: 1.05

Sequence: CAGGTAGGAA
- switch fluorescence ratio: 1.22

Sequence: GGATCCGTTT
- switch fluorescence ratio: 1

Sequence: TCGCGAGCTG
- switch fluorescence ratio: 1.02

Sequence: AAGAAGGCA
- switch fluorescence ratio: 0.999

Sequence: ATATAATTCG
- switch fluorescence ratio: 0.98

Sequence: ATACTAAGC
- switch fluorescence ratio: 1.03

Sequence: TTTAATTCGT
- switch fluorescence ratio: 0.998

Sequence: TCTTGATCAA
- switch fluorescence ratio: 0.99

Sequence: ACCTGCATCA
- switch fluorescence ratio: 1.15

Sequence: GGAGTGGATT
- switch fluorescence ratio: 0.993

Sequence: CCAGCGGTGT
- switch fluorescence ratio: 1.12

Sequence: TACATGTAC
- switch fluorescence ratio: 1.2

Sequence: GGTAAGAAAT
- switch fluorescence ratio: 0.987

Sequence: ATCGTGCAGG
- switch fluorescence ratio: 0.961

Sequence: GAGGTAGTTA
- switch fluorescence ratio: 1.03

Sequence: AAGTTGATAG
- switch fluorescence ratio: 1.01

Sequence: TAGTGTGGGT
- switch fluorescence ratio: 1.05

Sequence: TATTGGTTTC
- switch fluorescence ratio: 0.998

Sequence: GTGAGAAGCC
- switch fluorescence ratio: 0.971

Sequence: GCTAATGTGA
- switch fluorescence ratio: 0.977

Sequence: TGAGGATCAC
- switch fluorescence ratio: 1.07

Sequence: TTACACACGC
- switch fluorescence ratio: 1.47

Sequence: ACGGTTGGC
- switch fluorescence ratio: 1.01

Sequence: AACAGATTTG
- switch fluorescence ratio: 0.988

Sequence: TTGTATTTTC
- switch fluorescence ratio: 1.04

Sequence: TCGGAACCGG
- switch fluorescence ratio: 0.987

Sequence: CACAGGTCTC
- switch fluorescence ratio: 1.05

Sequence: AGCGAAGAGA
- switch fluorescence ratio: 1.02

Sequence: ATATGCCAGA
- switch fluorescence ratio: 0.977

Sequence: ACAATGGCAG
- switch fluorescence ratio: 1.02

Sequence: ATGTTTGTTC
- switch fluorescence ratio: 0.99

Sequence: ATACGCGGAC
- switch fluorescence ratio: 3

Sequence: ATTACGATT
- switch fluorescence ratio: 1.04

Sequence: AACAAAGTAT
- switch fluorescence ratio: 1.03

Sequence: TTGTCCCAGG
- switch fluorescence ratio: 3.92

Sequence: ATCCACTAGA
- switch fluorescence ratio: 1.05

Sequence: CCGAAAGTAG
- switch fluorescence ratio: 1.79

Sequence: GGTATGCACT
- switch fluorescence ratio: 0.993

Sequence: GTCTCAAAGT
- switch fluorescence ratio: 0.99

Sequence: TCCGAGAGGT
- switch fluorescence ratio: 1.02

Sequence: GCTAAGGGTT
- switch fluorescence ratio: 0.987

Sequence: GTGCACCGGC
- switch fluorescence ratio: 1.03

Sequence: CCCCATTTTG
- switch fluorescence ratio: 0.995

Sequence: TTTGCCAAGG
- switch fluorescence ratio: 0.996

Sequence: AGCGCCATAT
- switch fluorescence ratio: 1.12

Sequence: CAGGGTGTCT
- switch fluorescence ratio: 1.04

Sequence: CTCAGGCAGC
- switch fluorescence ratio: 1.65

Sequence: CGATTCTCGT
- switch fluorescence ratio: 0.987

Sequence: CCATACTTGC
- switch fluorescence ratio: 1.02

Sequence: GGTCCGACGC
- switch fluorescence ratio: 2.82

Sequence: ATCGAAAGTG
- switch fluorescence ratio: 0.982

Sequence: TGATCGAGAG
- switch fluorescence ratio: 0.971

Sequence: ACCACTTCCT
- switch fluorescence ratio: 1.55

Sequence: CCTCTAGGTC
- switch fluorescence ratio: 2.08

Sequence: CGTGATAGGC
- switch fluorescence ratio: 1.08

Sequence: GTGGAAA
- switch fluorescence ratio: 0.992

Sequence: TTGTTCCGAA
- switch fluorescence ratio: 0.976

Sequence: CCAAGTGTT
- switch fluorescence ratio: 0.977

Sequence: CTATGGCAAA
- switch fluorescence ratio: 1.04

Sequence: TGTGTACTCT
- switch fluorescence ratio: 1.03

Sequence: AAGGTCGCCG
- switch fluorescence ratio: 1

Sequence: CCCGGGCCGT
- switch fluorescence ratio: 1.01

Sequence: ATAAAAAATG
- switch fluorescence ratio: 0.981

Sequence: GGATGTAAAT
- switch fluorescence ratio: 0.978

Sequence: ACCAGAATTG
- switch fluorescence ratio: 1

Sequence: TATGCTTTTT
- switch fluorescence ratio: 1.04

Sequence: AATATAAGTA
- switch fluorescence ratio: 0.997
